Measurements: PubChem BioAssay (NCATS)
Inconclusive means that the source gave no clear call. Such entries were picked first, then a sample of the others. Potencies of inconclusive entries are left out as doubtful fits. Activity calls are given as the source filed them. Calls come from the whole dose curve; as a rule, active = well fitted inhibition curve with a large enough effect; inconclusive = small, poorly fitted or top-dose-only effect; inactive = no such curve, though single readings can be large or run the other way.
Potency is the fitted concentration of half-maximal effect; tags give direction and shape of the fitted curve.

Test: qHTS Screen of the MIPE 4.0 Collection Against Ewings Sarcoma (TC71) (AID 1259253); note: nearly all actives have a fitted effect of over 40% in size;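 for viability (% of DMSO): 100% = DMSO-treated cells and 0% = medium-only wells without cells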
Details: TC71 Ewing sarcoma viability, CellTiter-Glo, 48 h; series mostly up to 45.8 µM; viability (% of DMSO): at the top concentration
In short: (§1)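 Here, cells in 5% FBS RPMI were exposed for two days (48 h) to compound dilutions added four hours after plating. ATP-based CellTiter-Glo luminescence measured viability, normalized to vehicle and no-cell blanks.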
For `O=C(CN1C(=O)C2(CCCC2)NC[C@H]1c1cc(F)cc(F)c1)Nc1ccc2c(c1)C[C@@]1(C2)C(=O)Nc2ncccc21`, the “viability (% of DMSO)” value was inactive: 111%. For `COc1cc2nc(N(C)CCCNC(=O)C3CCCO3)nc(N)c2cc1OC` (stereo not given), the “viability (% of DMSO)” value was inactive: 97.9%. In the case of `C1=CCOCc2cc(ccc2OCCN2CCCC2)Nc2nccc(n2)-c2cccc(c2)OCC1`, the Potency is reported as active: 4.69 µM. For `Cc1cn(-c2cc(NC(=O)c3ccc(C)c(Nc4nccc(-c5cccnc5)n4)c3)cc(C(F)(F)F)c2)cn1`, the “viability (% of DMSO)” value was inactive: 128%. With `COc1cc(NCc2ccc3nc(N)nc(N)c3c2C)cc(OC)c1OC` the Potency was active: 0.833 µM. In the case of `CC(=O)[C@H]1CC[C@H]2[C@@H]3CC=C4C[C@@H](O)CC[C@]4(C)[C@H]3CC[C@]12C`, the “viability (% of DMSO)” value is reported as inactive: 119%. In the case of `COc1ccc2c(c1)CC[C@@H](CN(C)CC(=O)O)[C@H]2c1ccccc1`, the Potency is reported as active: 3.72 µM. With `NC(=O)C1CCCc2c1[nH]c1ccc(Cl)cc21` (stereo not given) the Potency was inconclusive [inhibitor, partial curve, poor fit]. In the case of `CCOC(=O)N1c2ccc(C(F)(F)F)cc2[C@@H](N(Cc2cc(C(F)(F)F)cc(C(F)(F)F)c2)C(=O)OC)C[C@H]1CC`, the Potency is reported as inconclusive [inhibitor, single point]. With `Nc1c2c(nc3ccccc13)CCCC2` the Potency was active: 18.7 µM. For `NC(=O)c1cnccn1`, the “viability (% of DMSO)” value was inactive: 119%. With `COc1cc(OC2CCN(C)CC2)ccc1Nc1ncc2c(n1)n(C1CCCC1)c(=O)n2C` the Potency was active: 4.69 µM. In the case of `CNC(=O)c1cc(Oc2ccc(NC(=O)Nc3ccc(Cl)c(C(F)(F)F)c3)cc2)ccn1`, the Potency is reported as active: 2.35 µM. In the case of `c1ccc([C@H]2CN3CCSC3=N2)cc1`, the “viability (% of DMSO)” value is reported as inactive: 124%. In the case of `C#CCN(C)CC1=Cc2ccccc2Oc2ccccc21`, the “viability (% of DMSO)” value is reported as inactive: 114%.

Test: qHTS Screen of the MIPE 4.0 Collection Against Ewings Sarcoma (TC32) (AID 1259256); note: nearly all actives have a fitted effect of over 45% in size;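 for viability (percent of control): 100% = DMSO-treated cells and 0% = medium-only wells without cells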
Details: TC32 Ewing sarcoma viability, CellTiter-Glo, 48 h; series mostly up to 45.8 µM; viability (percent of control): at the top concentration
In short: as §1
For `Cc1ccccc1C(=O)c1ccc(Nc2ccc(Br)cc2N)cc1Cl`, the Potency was inconclusive [inhibitor, partial curve, poor fit]. In the case of `CCOc1cc(N)c(Cl)cc1C(=O)NCC1CN(Cc2ccc(F)cc2)CCO1` (stereo not given), the “viability (percent of control)” value is reported as inactive: 127%. For `Cc1ccc(C(=O)Nc2ccc(CN3CCN(C)CC3)c(C(F)(F)F)c2)cc1C#Cc1cnc2cccnn12`, the Potency was active: 5.9 µM. In the case of `O=S(=O)(O)CCS`, the “viability (percent of control)” value is reported as inactive: 137%. With `COc1ccc2nc(S(=O)Cc3ncc(C)c(OC)c3C)[nH]c2c1` (stereo not given) the Potency was inconclusive [inhibitor, single point]. With `Cc1csc(-c2nnc(Nc3ccc(Oc4ncccc4-c4ccnc(N)n4)cc3)c3ccccc23)c1` the Potency was inconclusive [inhibitor, full curve, poor fit]. In the case of `CCn1c(-c2nonc2N)nc2c(C#CC(C)(C)O)ncc(OC[C@H]3CCCNC3)c21`, the Potency is reported as active: 18.7 µM. For `C[C@H]1O[C@H](O[C@H]2[C@H](O)[C@@H](O)[C@@H](O[C@H]3[C@H](O)[C@@H](O)C(O)O[C@H]3CO)O[C@H]2CO)[C@H](O)[C@@H](O)[C@H]1N[C@H]1C=C(CO)[C@@H](O)[C@H](O)[C@@H]1O` (stereo not given in full), the “viability (percent of control)” value was inactive: 134%. For `O=C(O)c1ccc(-n2nc(-c3ccccc3O)nc2-c2ccccc2O)cc1`, the Potency was inconclusive [inhibitor, partial curve]. With `Cc1ccc(NC(=O)c2cccc(C(C)(C)C#N)c2)cc1Nc1ccc2ncn(C)c(=O)c2c1` the Potency was inconclusive [inhibitor, partial curve, poor fit]. In the case of `CCN(C)C(=O)Oc1cccc([C@H](C)N(C)C)c1`, the “viability (percent of control)” value is reported as inactive: 124%. In the case of `COC(=O)[C@H](c1ccccc1Cl)N1CCc2sccc2C1`, the Potency is reported as inconclusive [inhibitor, single point]. With `O=C(O)CCc1ccc(NCc2cccc(Oc3ccccc3)c2)cc1` the “viability (percent of control)” value was inactive: 126%. In the case of `Cn1c(=O)c2c(ncn2C)n(C)c1=O`, the “viability (percent of control)” value is reported as inactive: 120%. With `O=C(CN1C(=O)C2(CCCC2)NC[C@H]1c1cc(F)cc(F)c1)Nc1ccc2c(c1)C[C@@]1(C2)C(=O)Nc2ncccc21` the “viability (percent of control)” value was inactive: 114%. For `COc1cc2nc(N(C)CCCNC(=O)C3CCCO3)nc(N)c2cc1OC` (stereo not given), the “viability (percent of control)” value was inactive: 98.9%. For `Cc1cn(-c2cc(NC(=O)c3ccc(C)c(Nc4nccc(-c5cccnc5)n4)c3)cc(C(F)(F)F)c2)cn1`, the “viability (percent of control)” value was inactive: 137%. For `COc1cc(NCc2ccc3nc(N)nc(N)c3c2C)cc(OC)c1OC`, the Potency was active: 0.833 µM. In the case of `NC(=O)C1CCCc2c1[nH]c1ccc(Cl)cc21` (stereo not given), the Potency is reported as inconclusive [inhibitor, partial curve, poor fit]. With `CCOC(=O)N1c2ccc(C(F)(F)F)cc2[C@@H](N(Cc2cc(C(F)(F)F)cc(C(F)(F)F)c2)C(=O)OC)C[C@H]1CC` the Potency was inconclusive [inhibitor, partial curve, poor fit].
